Assay results reported in PubChem BioAssay (NCATS).
“And” between values parts separate entries of the source, which are not always exact repeats. Equal values may be shown once. This list was built around the results that the source calls inconclusive (neither active nor inactive); the mix of calls is not that of the screen. Potencies of inconclusive entries are doubtful fits and often do not repeat. The source made the active and inactive calls. Calls come from the whole dose curve; as a rule, active = well fitted cell-killing curve with a large enough effect; inconclusive = small, poorly fitted or top-dose-only effect, or effect the other way; inactive = no such curve, though single readings can be large or run the other way.

Test: Viability qHTS for spleen associated tyrosine kinase inhibitor (SYKi) naive MV4-11 cells (AID 1963823); note: nearly all actives have a fitted effect of over 40% in size
Conditions: MV4-11 AML viability, CellTiter-Glo luminescence, 72 h; viability (% of control): at 45 µM (top of the series)
Excerpt: Department of Medicine, Hematology/Oncology
University Hospital Frankfurt, Germany.
Trials have shown promising clinical activity of the selective SYK inhibitor entospletinib in patients with high expressing HOXA9/MEIS1 acute leukemias. As the development of resistance mechanisms is a common problem in the use of targeted drugs, we performed a chemical library screen to identify drug sensitivities in SYK inhibitor resistant AML cells. […] Glucocorticoids are potent immunosuppressants which work in part by inhibiting the transcription of cytokine genes.
Described herein is a viability screen to look for activity in the SYK inhibitor naive cell line against four NCATS compound libraries (MIPE 5.0, NPC, NPACT, and Kinase) totaling 11372 compounds. Active hits were reacquired for confirmation and further secondary assay testing.
SEQUENCE No. (e.g., 1, 2, 3, etc.); […] (e.g., Cells, Incubation, Reagent, etc.); VALUE; DESCRIPTION.
1; Media; 2uL; white, solid-bottom Corning assay plate.
2; Compounds; 23nL; Echo acoustic dispenser.
3; Cell; 5uL; 500 cells per well.
4: Incubation; 72hr; 37 C, 5% CO2, 95% humidity.
5; Reagent; 3uL; CellTiter-Glo reagent (Promega).
6; Incubation; 10min; room temperature.
7; Detection; Luminescence; ViewLux plate reader (PerkinElmer).
NOTES (numbers refer to Sequence numbers above
1. Quantitative high-throughput screening (qHTS) of small molecule compounds was conducted on naive SYKi MV4-11 cell line.
2. Twenty-three nanoliter of small molecule compounds were added to each assay plates using the Echo acoustic dispenser (Beckman Coulter).
3. Cells were seeded into the assay plates at a final density of 500 cells in 5uL of media per well using the Multi-drop Combi dispenser.
4. Plates were covered with stainless steel gasketed lids and incubated for 72 hours at standard cell culture conditions.
5. Viability was assessed by adding 3uL of CellTiter-Glo detection reagent (Promega).
6. Plates were covered with gasket lids and incubated for 10 minutes at room temperature.
7. Luminescence was measured on a ViewLux plate reader (PerkinElmer).
Potency is the fitted concentration of half-maximal effect; tags give direction and shape of the fitted curve.

SMILES | viability (% of control) | Potency
CCN(CC)C(C)CN1c2ccccc2Sc2ccccc21 (stereo not given) | inactive: 64.8% | 
COC1CC(=O)C23C(=O)NC(CC(C)C)C2C(C)C(C)=CC3/C=C(\C)CCC(O)C1O (stereo not given) |  | active: 1.42 µM
CC1CCC23COC(=O)C2=CC(O)CC3C1(C)CCC1=CC(=O)OC1O (stereo not given) | inactive: 95.4% | 
Nc1ccccc1NC(=O)c1ccc(CNC(=O)OCc2cccnc2)cc1 |  | active: 651 nM and active: 742 nM
CC(=O)NC(CS)C(=O)O (stereo not given) | inactive: 90.1% | 
COc1ccc(C(Cl)=C(c2ccc(OC)cc2)c2ccc(OC)cc2)cc1 |  | inconclusive: 0.237 µM [cytotoxic, full curve, poor fit]
COc1cc([C@H]2OC[C@]3(OC(C)=O)[C@@H](c4ccc(O[C@@H]5O[C@H](CO)[C@@H](O)[C@H](O)[C@H]5O)c(OC)c4)OC[C@H]23)ccc1O | inactive: 80.8% [at 17.3 µM] | 
CN(C)Cc1ccc(S(=O)(=O)n2ccc(/C=C/C(=O)NO)c2)cc1 |  | active: 3.32 µM
C=C1OC2CC(C(=O)O)C=CC2NC1=O (stereo not given) | inactive: 61.3% | 
CN(C)CCN(Cc1cccs1)c1ccccn1 | inactive: 67.4% | 
CC1[C@@H](O)[C@@H](O)C2[C@]3(C)C(C[C@H]4OC(=O)[C@H](O)[C@]1(O)[C@@]24C)C(C)(O)C[C@H](O)[C@H]3O (stereo not given in full) | inactive: 90% [at 17.3 µM] | 
c1cc(-c2cc(C3CCNCC3)[nH]n2)ccn1 | inactive: 99% [at 17.3 µM] | 
O=C(O)c1cc(N(Cc2ccc(C3CCCCC3)cc2)C(=O)c2ccc(Oc3ccccc3)cc2)ccc1O |  | inconclusive: 25.9 µM [cytotoxic, single point]
C/C=C/C1OC2=C(C(=O)OC2(C)O)C(O)C1O (stereo not given) | inactive: 78.3% | 
O=C(NCCCNc1nc(Nc2cccc(NC(=O)N3CCCC3)c2)ncc1I)c1cccs1 |  | inconclusive: 0.132 µM [cytotoxic, full curve]
N#Cc1ccc(-c2ccc(NC(=O)Nc3ccc(-c4ccnc5nc[nH]c45)cc3)cc2)cc1 |  | inconclusive: 0.58 µM [cytotoxic, partial curve]
CC1(C)CC2C(C1)C(C)(O)C13CC1(COC3=O)C2O (stereo not given) | inactive: 72.4% | 
C[C@@]1(c2ncncc2F)NC(=O)c2cc(-c3cn[nH]c3)ccc21 |  | active: 16.6 µM
CNC(C)C(=O)NC(C(=O)N1CCCC1C(=O)Nc1cccc2ncccc12)C(C)C (stereo not given) | inactive: 98.9% | 
O=C(Nc1ccc(F)c(C(F)(F)F)c1)Nc1nnc(-c2ccncc2)s1 |  | inconclusive: 0.731 µM [cytotoxic, full curve]

SMILES | viability (% of control) | Potency
COc1cc(OC)nc(O[C@H](C(=O)O)C(OC)(c2ccccc2)c2ccccc2)n1 | inactive: 64.4% | 
CC(C)C(C)(C)C(C)(C)C(C)(C)S |  | inconclusive: 0.344 µM [rising, full curve, poor fit]
O=c1c2ccccc2nc2n1CCc1c-2[nH]c2ccccc12 |  | inconclusive: 1.3 µM [cytotoxic, full curve]
CCCCCCCCCCCCCCCCCCCCCCO | inactive: 93% [at 17.3 µM] | 
COc1ccc2[nH]c(S(=O)Cc3ncc(C)c(OC)c3C)nc2c1 (stereo not given) |  | inconclusive: 7.31 µM [cytotoxic, partial curve]
CC(C)c1cnn2c(NCc3ccccc3)cc(NCCCCCCN)nc12 |  | active: 16.6 µM
CC(C)=CCC/C(C)=C/CC/C(C)=C/C(=O)OCC(=O)[C@@]1(O)CC[C@H]2[C@@H]3CCC4=CC(=O)C=C[C@]4(C)[C@H]3[C@@H](O)C[C@@]21C |  | inconclusive: 11.9 µM [cytotoxic, partial curve, poor fit]
Cc1ncc([N+](=O)[O-])n1CC(O)CCl (stereo not given) |  | inconclusive: 0.0024 µM [rising, full curve, poor fit]
CC1(C)CC(=O)C2=C(C1)NC(=S)NC2c1cccc(O)c1 (stereo not given) |  | inconclusive: 0.58 µM [cytotoxic, full curve]
CC(=O)[C@@H]1CC[C@]2(C(=O)O)CC[C@]3(C)C(CCC4[C@@]5(C)CC[C@H](O)C(C)(C)C5CC[C@]43C)C12 (stereo not given in full) |  | inconclusive: 8.93 µM [cytotoxic, single point]
COc1ccc(N(C)c2nc(C)nc3ccccc23)cc1 |  | inconclusive: 0.0042 µM [cytotoxic, full curve]
NC[C@H]1O[C@H](O[C@H]2[C@H](O[C@@H]3O[C@H](CO)[C@@H](O)[C@H]3O)C(O)[C@H](N)C[C@@H]2N)[C@H](N)[C@@H](O)[C@@H]1O (stereo not given in full) |  | inconclusive: 3.06 µM [rising, partial curve]
CC(=O)NCCNc1cc(Cl)nn2c(-c3cccc(S(=O)(=O)N(C)C)c3)c(C)nc12 |  | active: 1.46 µM
COC(=O)C1=COC(O[C@@H]2O[C@H](COC(=O)/C=C/c3ccc(O)cc3)[C@@H](O)[C@H](O)[C@H]2O)C2C(CO)=CCC12 (stereo not given in full) | inactive: 81.3% [at 17.3 µM] | 
CC(CN(C)C)CN1c2ccccc2CCc2ccccc21 (stereo not given) |  | inconclusive: 29.9 µM [cytotoxic, single point]
CCCCc1ccc(C(=O)Nc2cc(-c3ccc(Cl)cc3)nn2-c2ccc(Cl)cc2)cc1 | inactive: 73% | 
CC(=O)C=C=C1C(C)(C)CC(O)CC1(C)O[C@@H]1O[C@H](CO[C@H]2OC[C@](O)(CO)[C@H]2O)[C@@H](O)[C@H](O)[C@H]1O (stereo not given in full) | inactive: 42% [at 17.3 µM] | 
CC(=O)O[C@@H]1C[C@@]2(C)C(CC[C@]3(C)C2CC=C2C4CC(C)(C)CC[C@]4(C(=O)O)CC[C@]23C)C(C)(C)[C@H]1O (stereo not given in full) |  | inconclusive: 7.96 µM [cytotoxic, partial curve]
CC(O)CCC1C(CO[C@@H]2O[C@H](CO)[C@@H](O)[C@H](O)[C@H]2O)CC(O)CC1(C)C (stereo not given in full) | inactive: 70.9% | 
COC[C@@H](c1ccc(C(F)(F)F)cc1)N1CCN(C2(C)CCN(C(=O)c3c(C)ncnc3C)CC2)C[C@H]1C |  | inconclusive: 26.6 µM [cytotoxic, single point]
